Results published in patent US20220275048A1 (PHARCHOICE THERAPEUTICS, published 2022).

Experiments:
Test in all cases: SPR, Biacore T100
[1] = biological target: T1, mouse CD155 (mouse)
T1 construct: The construct used in the Biacore assay is not described
Excerpt: (§1) Biacore T100 (GE Healthcare) was used to detect the affinity of each immunoadhesin according to the method in the literature (Bruhns P. et al. Blood, 2009, 113(16): 3716-3725).

[2] = biological target: T2, human CD155 (human, UniProt P15151 21-343, limits assumed)
T2 construct: The construct used in the Biacore assay is not described
T2 sequence (looked up): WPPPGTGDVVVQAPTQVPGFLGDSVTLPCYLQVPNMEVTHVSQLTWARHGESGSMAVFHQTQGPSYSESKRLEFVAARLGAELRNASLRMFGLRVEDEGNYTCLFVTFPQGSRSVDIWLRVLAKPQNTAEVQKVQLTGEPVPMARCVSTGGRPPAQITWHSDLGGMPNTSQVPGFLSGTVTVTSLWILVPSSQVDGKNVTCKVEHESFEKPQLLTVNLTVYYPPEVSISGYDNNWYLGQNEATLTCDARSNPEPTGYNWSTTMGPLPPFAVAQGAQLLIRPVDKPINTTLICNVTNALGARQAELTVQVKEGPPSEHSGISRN
Excerpt: as §1

[3] = biological target: T3, anti-IL 10
T3 construct: not described further
Excerpt: as §1

[4] = biological target: B7
Excerpt: as §1

B1: TIGIT-Fc-wt (Fc fusion)
chain: MMTGTIETTGNISAEKGGSIILQCHLSSTTAQVTQVNWEQQDQLLAICNADLGWHISPSFKDRVAPGPGLGLTLQSLTVNDTGEYFCIYHTYPDGTYTGRIFLEVLESSVAEHGARFQIP[sequence of human IgG1 Fc not given]
notes: also called human TIGIT immunoadhesin
- Kd [1]: 2.07 nM
- Kd [2]: 1.55 nM

B3: TIGIT/IL10-Fc (Fc fusion)
chain 1: MMTGTIETTGNISAEKGGSIILQCHLSSTTAQVTQVNWEQQDQLLAICNADLGWHISPSFKDRVAPGPGLGLTLQSLTVNDTGEYFCIYHTYPDGTYTGRIFLEVLESSVAEHGARFQIP[sequence of human IgG1 Fc with changes not given]
chain 2: SPGQGTQSENSCTHFPGNLPNMLRDLRDAFSRVKTFFQMKDQLDNLLLKESLLEDFKGYLGCQALSEMIQFYLEEVMPQAENQDPDIKAHVNSLGENLKTLRLRLRRCHRFLPCENKSKAVEQVKNAFNKLQEKGIYKAMSEFDIFINYIEAYMTMKIRN[sequence of human IgG1 Fc with changes not given]
- Kd [3]: 0.91 nM
- Kd [1]: 3.21 nM
- Kd [2]: 2.41 nM

Other lines, results leading:

- Kd [1]: 2.15 nM
- Kd [2]: 1.84 nM
B2: TIGIT-Fc-LALA-PG (Fc fusion)
chain: MMTGTIETTGNISAEKGGSIILQCHLSSTTAQVTQVNWEQQDQLLAICNADLGWHISPSFKDRVAPGPGLGLTLQSLTVNDTGEYFCIYHTYPDGTYTGRIFLEVLESSVAEHGARFQIP[sequence of human IgG1 Fc with changes not given]
notes: also called LALA-PG variant of human TIGIT immunoadhesin

- Kd [1]: 3.55 nM
- Kd [4]: 2.51 nM
- Kd [2]: 2.39 nM
B4: TIGIT/CTLA4-Fc (Fc fusion)
chain 1: MMTGTIETTGNISAEKGGSIILQCHLSSTTAQVTQVNWEQQDQLLAICNADLGWHISPSFKDRVAPGPGLGLTLQSLTVNDTGEYFCIYHTYPDGTYTGRIFLEVLESSVAEHGARFQIP[sequence of human IgG1 Fc with changes not given]
chain 2: [sequence of about 350 residues with a human IgG1 Fc not given]

Each block holds one binder with its values, some of them ahead of it.
